The record followed here is article PMC4336329 (PLoS ONE, 2015).

In all, about 310,000 compounds went through this assay and about 2,200 (0.71%) showed an effect of 50% or more. The effect is printed as a negative number. The list shows a part of the results.

Chain of human ether-à-go-go-related gene (hERG) potassium channel (Q12809 whole entry, looked up): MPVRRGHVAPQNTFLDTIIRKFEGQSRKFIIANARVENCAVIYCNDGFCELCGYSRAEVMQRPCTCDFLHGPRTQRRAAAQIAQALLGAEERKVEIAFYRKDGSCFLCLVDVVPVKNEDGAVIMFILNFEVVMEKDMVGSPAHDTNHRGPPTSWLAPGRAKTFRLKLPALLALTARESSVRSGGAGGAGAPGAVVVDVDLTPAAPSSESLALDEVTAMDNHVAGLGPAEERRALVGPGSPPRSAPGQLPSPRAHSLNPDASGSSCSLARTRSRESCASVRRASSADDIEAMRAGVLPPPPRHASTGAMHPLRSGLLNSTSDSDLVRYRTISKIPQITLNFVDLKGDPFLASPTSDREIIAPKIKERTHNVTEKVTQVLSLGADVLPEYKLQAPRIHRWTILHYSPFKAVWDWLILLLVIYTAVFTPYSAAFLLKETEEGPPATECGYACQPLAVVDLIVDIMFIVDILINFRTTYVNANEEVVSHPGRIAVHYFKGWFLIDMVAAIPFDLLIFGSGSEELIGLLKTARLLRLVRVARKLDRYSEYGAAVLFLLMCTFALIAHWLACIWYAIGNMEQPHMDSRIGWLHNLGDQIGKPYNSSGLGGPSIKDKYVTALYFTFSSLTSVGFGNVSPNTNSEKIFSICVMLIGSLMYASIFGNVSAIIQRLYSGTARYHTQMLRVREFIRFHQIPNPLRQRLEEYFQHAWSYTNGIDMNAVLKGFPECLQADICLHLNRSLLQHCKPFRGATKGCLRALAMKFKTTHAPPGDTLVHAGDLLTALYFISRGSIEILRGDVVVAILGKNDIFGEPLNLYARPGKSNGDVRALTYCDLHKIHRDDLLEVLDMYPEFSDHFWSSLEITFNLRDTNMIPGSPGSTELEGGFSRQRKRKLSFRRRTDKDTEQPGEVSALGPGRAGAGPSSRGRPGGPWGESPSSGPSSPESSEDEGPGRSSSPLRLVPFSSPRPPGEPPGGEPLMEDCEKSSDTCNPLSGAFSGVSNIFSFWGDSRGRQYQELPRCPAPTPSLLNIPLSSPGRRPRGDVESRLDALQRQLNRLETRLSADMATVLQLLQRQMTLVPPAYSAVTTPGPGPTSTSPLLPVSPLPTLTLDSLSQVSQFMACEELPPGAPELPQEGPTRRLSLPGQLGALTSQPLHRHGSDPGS

The assay concerns the target human ether-à-go-go-related gene (hERG) potassium channel (human, UniProt Q12809). The assay can be described thus: primary screen, population patch clamp on CHO cells stably expressing hERG.
In the case of `COc1ccc(C)cc1NC(=O)C(OC(=O)CNC(=O)c1cc(C)cc(C)c1)c1ccccc1` (stereo not shown), the “hERG current change (%, negative = inhibition) at 1uM” value is 15.6%.
With `COc1cccc(NC(=O)[C@H](Cc2c[nH]c3ccccc23)NC(=O)[C@@H]2Cc3ccccc3CN2)c1` the figure was -0.5%; with `O=C(CCc1ccccc1)NCCCNC(=O)CCc1ccccc1`, 6.59%.
Regarding `O=C(CSc1nnc(COc2cccc3cccnc23)o1)c1ccc(F)cc1`, the “hERG current change (%, negative = inhibition) at 1uM” value is 7.93%.
On to `O=C(O)CC(NC(=O)c1sc2ccccc2c1Cl)c1ccc(OC2CCCC2)cc1` (stereo not shown), for which the “hERG current change (%, negative = inhibition) at 1uM” value is 2.85%.
Then `O=C(c1ccc(F)cc1)N1CCN(c2ncccn2)CC1`, with 6.96%.
Turning to `Cc1cccc(CN2C[C@]34C=C[C@@H](C[C@@H]3S2(=O)=O)O4)c1`, the “hERG current change (%, negative = inhibition) at 1uM” value was determined as 10.3%.
With `CCCn1c(=S)[nH]c2cc(C(=O)NCC3CCCO3)ccc2c1=O` (stereo not shown) the figure was 10.9%; with `C=CCN(c1nc(C)cc(OC)n1)S(=O)(=O)c1ccccc1`, 10.3%.
Then `Cc1ccc(NC(=O)C2CC(=O)N/C(=N/N=C/c3ccco3)S2)cc1` (stereo not shown), with 5.35%; and `CN(C)C1=NC[C@H](Cc2ccccc2)N1CC1CCCCCC1`, with 4.4%.
As for `O=C(CCc1ccc(O)cc1)c1c(O)cc(O)cc1O`, the “hERG current change (%, negative = inhibition) at 1uM” value amounted to 12.6%.
For `O=C1NC(=O)C2(C(=O)N1)C(c1ccc(F)cc1)NC(=S)NC2c1ccc(F)cc1` (stereo not shown), the “hERG current change (%, negative = inhibition) at 1uM” value is listed as 7.99%.
With `CCOC(=O)c1ccc(NC(=S)NCCCN2CCCC2=O)cc1` the figure was 2.42%; with `O=C(CSc1nnc(CNC(=O)c2c(F)cccc2F)o1)NCC1CCCO1` (stereo not shown), 3.41%.
`CCc1ccc(C(=O)CSc2nc(N)cc(=O)[nH]2)cc1`: the “hERG current change (%, negative = inhibition) at 1uM” value was 14.7%.
Regarding `O=C(CN1C(=O)COc2ccccc21)NCCC1=CCCCC1`, the “hERG current change (%, negative = inhibition) at 1uM” value was -6.54%.
Turning to `COc1ccc(C(=O)CC(Nc2ccc([N+](=O)[O-])cc2)c2ccc(Cl)cc2)cc1` (stereo not shown), the “hERG current change (%, negative = inhibition) at 1uM” value is recorded as -8.72%.
Then `CCOc1ccc(NC(=O)CN(C)C(=O)CCC2CCCCC2)cc1OCC`, with -5.88%; and `CC(NC(=S)NCCCN1CCOCC1)C12CC3CC(CC(C3)C1)C2` (stereo not shown), with 12.9%.
As to `CC(C)(C)OC(=O)NCc1ccc(NC(=O)c2nc[nH]c2C(=O)N[C@@H](Cc2ccccc2)C(=O)OCc2ccccc2)cc1`, the “hERG current change (%, negative = inhibition) at 1uM” value is listed as 11.6%.
Consider `COc1ccc(C=O)cc1COc1ccc(C)cc1[N+](=O)[O-]`, for which the “hERG current change (%, negative = inhibition) at 1uM” value worked out at 6.02%.
As to `COc1ccc2[nH]c3nc(SC(C)C)nnc3c2c1`, the “hERG current change (%, negative = inhibition) at 1uM” value is reported as 9.94%.
Then `CCC(C)[C@H](N)c1nnc(SCC(=O)Nc2ccc(C)cc2C)o1` (stereo partly shown), with -8.52%.
Then `O=C1CC(c2ccc3c(c2)OCO3)C2=C(CCCC2=O)N1` (stereo not shown), with 4.8%; and `CC(C)(C)C(=O)Nc1ccc(C(=O)N/N=C/C2CC3C=CC2C3)cc1` (stereo not shown), with 5.56%.
`CCS(=O)(=O)c1ccc(C(=O)NC2CC2)c(Cl)c1Cl`: the “hERG current change (%, negative = inhibition) at 1uM” value is given as 8.31%.
On to `CCOC(=O)c1ccc(OCC2NCCc3cc(OC)c(OC)cc32)cc1` (stereo not shown), for which the “hERG current change (%, negative = inhibition) at 1uM” value was 6.45%.
For the compound `Fc1ccc(NCc2cccnc2)cc1`, the “hERG current change (%, negative = inhibition) at 1uM” value amounted to 4.71%.
With `COc1cccc(CNC(=O)C2CSC3(C)CCC(=O)N23)c1` (stereo not shown) the figure was 9.43%; with `O=C(CCNC(=O)c1ccccc1Cl)NCc1ccco1`, -0.237%; with `CCc1cccc(NS(=O)(=O)c2csc(C(N)=O)c2)c1`, -3.63%.
With `CCCC(=O)NC(c1ccc(Cl)cc1)c1ccc2cccnc2c1O` (stereo not shown) the figure was 8.76%.
With `Cc1c(-c2ccccc2)oc2c(C(=O)OCC(=O)Nc3ccc(C(N)=O)cc3)cccc2c1=O` the figure was 10.5%; with `Cc1onc(-c2c(F)cccc2Cl)c1C(=O)NCc1cccs1`, -3.54%; with `O=C(Cc1ccc(S(=O)(=O)N2CCOCC2)s1)Nc1ccccc1N1CCCC1`, 1.94%.
Turning to `COC(=O)c1sc(NC(=O)COc2c(C)cccc2C)nc1C`, the “hERG current change (%, negative = inhibition) at 1uM” value is on record as 7.51%.
Turning to `CCC(C)NC(=O)C1c2ccccc2C(=O)N1Cc1ccccc1OC` (stereo not shown), the “hERG current change (%, negative = inhibition) at 1uM” value was -0.277%.
With `CCOC(=O)c1c(C)[nH]c(C)c1S(=O)(=O)N(C)CC(=O)NCc1cccc(C)c1` the figure was 4.31%.
With `Cc1cc(C(=O)O)c2ccccc2n1` the figure was 14.2%.
Take `O=C(COC(=O)c1ccccc1NC(=O)c1ccco1)NCCC1=CCCCC1`: the “hERG current change (%, negative = inhibition) at 1uM” value came out at 6.95%.
As for `COc1ccc(CCNC(=O)COC(=O)Cn2cnc3c2c(=O)n(C)c(=O)n3C)cc1`, the “hERG current change (%, negative = inhibition) at 1uM” value was found to be 12.9%.
With `CC(=O)NCCC(=O)Nc1cc(S(=O)(=O)Nc2ccc(Cl)cc2)ccc1N1CCCC1` the figure was 13.1%; with `COc1ccc(C(=O)CSc2nc3nc(C)cc(C)n3n2)cc1OC`, 6.89%.
With `COc1ccc(C(=O)C2CCCN(Cc3ccsc3)C2)cc1OC` (stereo not shown) the figure was -38.5%; with `NC(=O)c1cc2cc(Cl)ccc2oc1=Nc1cccc(C(F)(F)F)c1`, 21%.
Then `CCN1CCN(CC(=O)Nc2ccc3c(c2)OCCO3)C(=O)C1=O`, with 20.5%; and `O=C(/C=C/c1ccco1)NCCCN1CCN(CCCNC(=O)/C=C/c2ccco2)CC1`, with 10.1%.
In the case of `NC1=NC[C@H](Cc2ccc(O)cc2)N1CCCCC1CCCCC1`, the “hERG current change (%, negative = inhibition) at 1uM” value is recorded as -1.97%.
With `CCOc1ccc(-c2nnn(CC(=O)N3CCN(c4ccc(F)cc4)CC3)n2)cc1OCC` the figure was 3.71%; with `CC(=O)Nc1ccc(C(=O)N(C)C(C(=O)Nc2ccc(C)cc2)c2ccccn2)cc1` (stereo not shown), 5.83%.
On to `Cc1noc(C)c1C(=O)OCC(=O)N(C)C1CCS(=O)(=O)C1` (stereo not shown), for which the “hERG current change (%, negative = inhibition) at 1uM” value turned out to be 12.7%.
With `O=C(CNC(=S)NC(=O)C1CCCCC1)c1ccccc1` the figure was 12.7%; with `C=CCn1c(C(c2ccccc2)c2ccccc2)n[nH]c1=S`, 2.8%.
On to `COc1cccc(Nc2nc3ccccc3n3nnnc23)c1`, for which the “hERG current change (%, negative = inhibition) at 1uM” value turned out to be 16.1%.
Then `Cc1ccc(NC(=O)c2cccc(C(=O)Nc3ccc(C)cc3C(=O)O)c2)c(C(=O)O)c1`, with 17.2%; and `COc1cccc(NS(=O)(=O)c2c(C(=O)N3CCCCCC3)c(C)n(C)c2C)c1`, with 9.88%; and `COC(=O)[C@@H](NC(=O)Nc1ccccc1F)C(C)C`, with 12%.
With `Cc1cccc(CN2C(=O)c3ccccc3S(=O)(=O)c3ccc(C(=O)NCCCN4CCCC4)cc32)c1` the figure was 9.32%; with `Cc1cc(C)n(CCc2nc(-c3ccc(F)cc3)cs2)n1`, 3.71%.
With `COc1ccc(S(C)(=O)=O)cc1S(C)(=O)=O` the figure was 12.3%; with `COc1ccccc1CNC(=O)CN1C(=O)COc2ccc(S(=O)(=O)N3CCCCC3)cc21`, 11.2%; with `C#CC(C)(C)NC(=O)c1sccc1Oc1ccc(F)cc1[N+](=O)[O-]`, 13.1%.
In the case of `COC(=O)c1nnn(-c2cc(Cl)cc(Cl)c2)c1C(=O)OC`, the “hERG current change (%, negative = inhibition) at 1uM” value is 12.1%.
For the compound `COc1ccc(CC(NC(C)=O)C(=O)NC2CCN(C(=O)NCc3ccccc3)CC2)cc1` (stereo not shown), the “hERG current change (%, negative = inhibition) at 1uM” value is on record as -2.96%.
For the compound `CC1CCCN(C(=O)COC(=O)c2cc([N+](=O)[O-])ccc2N2CCOCC2)C1` (stereo not shown), the “hERG current change (%, negative = inhibition) at 1uM” value stood at 4.78%.
With `CCCCCCCCn1c(N2CCN(c3cccc(Cl)c3)CC2)nc2c1c(=O)[nH]c(=O)n2C`, the “hERG current change (%, negative = inhibition) at 1uM” value was 12.2%.
With `CCOC(=O)c1[nH]c(C)c(C(=O)NCc2ccc(Cl)cc2)c1C` the figure was -4.65%; with `COCCOC(=O)C1=C(N)Oc2c(oc(CO)cc2=O)C1c1c(F)cccc1Cl` (stereo not shown), 1.67%.
Regarding `CCCCn1c(=O)c(C(=O)Nc2cccc(C)c2)c(O)c2ccccc21`, the “hERG current change (%, negative = inhibition) at 1uM” value worked out at 9.53%.
On to `O=C(Cc1ccccc1[N+](=O)[O-])NCCc1ccc(F)cc1`, for which the “hERG current change (%, negative = inhibition) at 1uM” value was determined as 11.3%.
With `Cc1cc(C(=O)CSc2cccc[n+]2[O-])c(C)n1-c1ccccc1` the figure was 4.14%.
With `O=C1CSC(=Nc2ccc(Cl)cc2)N1` the figure was 8.94%.
On to `COC(CNC(=O)c1ccc2c(=O)n(Cc3ccc(Cl)cc3)c(=S)[nH]c2c1)OC`, for which the “hERG current change (%, negative = inhibition) at 1uM” value is reported as 13.3%.
For `CNC(=O)/C(C#N)=C/c1cccc(Oc2ccccc2)c1`, the “hERG current change (%, negative = inhibition) at 1uM” value is on record as -3.22%.
Consider `CCOC(=O)N1CCN(Cc2c(NC(=O)c3ccco3)sc(C)c2C)CC1`, for which the “hERG current change (%, negative = inhibition) at 1uM” value was determined as 1.13%.
With `C=C(C)COc1ccc(-c2[nH]ncc2Oc2ccccc2OCC)c(O)c1` the figure was -4.1%; with `O=S(=O)(N/N=C/c1ccccc1OCc1ccc(Cl)cc1)c1ccccc1`, -1.17%.
As for `CN(C)C=O.COc1ccccc1NC(=O)C1=C(C)NC(=O)NC1c1ccccc1[N+](=O)[O-]` (stereo not shown), the “hERG current change (%, negative = inhibition) at 1uM” value is listed as 12.2%.
Take `COc1ccc(NC(=O)c2ccccc2C)cc1`: the “hERG current change (%, negative = inhibition) at 1uM” value is 11.7%.
As to `N#CCC(=O)NCC1(c2ccccc2)CCCC1`, the “hERG current change (%, negative = inhibition) at 1uM” value was determined as 7.44%.
Regarding `Cc1nn(-c2ccccc2)c2nc(-c3ccccc3)cc(C(=O)N3CCOCC3)c12`, the “hERG current change (%, negative = inhibition) at 1uM” value is reported as -6.42%.
With `O=C(NC1CCN(Cc2ccccc2)CC1)c1cncc(Br)c1` the figure was -27.2%; with `O=Cc1ccc(-c2cc(Cl)ccc2Cl)[nH]1`, 8.77%; with `Cc1cc(C(=O)NCCC(C)C)c2ccccc2n1`, 9.39%.
With `COc1ccc(-c2nnc(SCc3ccccn3)n2C)cc1` the figure was 5.7%; with `Cc1ccc(-c2[nH]n3c(=O)c4c(nc3c2C)CCCC4)cc1`, -4.72%.
With `COc1cc(C2CC(c3cccnc3)=NN2c2ccc(F)cc2)cc(OC)c1OC` (stereo not shown) the figure was 2.7%.
